The values below come from PubChem BioAssay AID434955 (Southern Research Specialized Biocontainment Screening …, 2010).

Broadly, the inhibition is the change of the read-out against control, counted positive when it falls.

Some of the results follow. The main result of the screen is listed elsewhere. These columns were measured beside it and carry no call. The list favours compounds with an active or inconclusive main result.

This assay in a line: beta-lactam sensitization of Mtb H37Rv, H37Rv (AID 434955).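 Further: growth measured after seven days incubation then overnight dye step; 0% = bacteria only wells and 100% = bacteria with antibiotic.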 The settings on record: M. tuberculosis H37Rv growth with meropenem, percent inhibition; measured here: primary screen without meropenem; at 25 µM.
`CN(C(=O)C1CCC(=O)N(Cc2ccccc2F)C1)C1CCOCC1` (stereo not drawn): the inhibition was -10.4%.

As for `Cc1ccccc1NS(=O)(=O)c1cc(C(=O)N2CCCC2)ccc1Cl`, the inhibition is -10.7%.

On to `CN(C(=O)C1CCN(S(=O)(=O)c2cccc3nonc23)CC1)C1CCCCC1`, for which the inhibition is -1.8%.

As for `COc1cc(/C=C/c2ccc3cccc([N+](=O)[O-])c3n2)ccc1OCC(=O)O`, the inhibition worked out at 49%.

For `Cc1cc(=O)[nH]c(S/C=C/c2ccccc2)n1`, the inhibition is -1.87%.

On to `CCCCSCCCNC(=O)c1ccc(CS(=O)(=O)c2ccc(OC)cc2)o1`, for which the inhibition is 8.07%.

For the compound `CCCN(CCC)C(=O)c1ccc2c(c1)S(=O)(=O)c1ccccc1C2=O`, the inhibition was -5.39%.

`COc1ccccc1-n1c(C)nc2cc(C(=O)NCC3CCCO3)ccc21` (stereo not drawn): the inhibition was -4.49%.

On to `Nc1ncc(Br)cc1S(=O)(=O)NCCC(=O)NCc1ccc(F)cc1`, for which the inhibition turned out to be 6.56%.

For the compound `CC(C)(C(=O)c1ccccc1)/[N+]([O-])=C/c1ccc(Br)cc1`, the inhibition is 3.61%.

In the case of `O=C(COc1ccccc1)Nc1cc(C(F)(F)F)ccc1N1CCCC1`, the inhibition amounted to 12.2%.

`Cc1cc(C(=O)NC2CC(C)(C)Cc3c2cnn3-c2ccccc2C)c(C)o1` (stereo not drawn): the inhibition came to 13.8%.

For the compound `CCc1ccccc1-n1nnc(-c2ccccc2)n1`, the inhibition turned out to be 3.64%.

Take `CCc1ccc(NC(=O)C2C3/C=C\CCCCC32)cc1` (stereo not drawn): the inhibition is -7.75%.

As to `O=C1O/C(=C/c2ccccc2)N=C1c1ccccc1`, the inhibition amounted to 8.06%.

As for `CSc1sc(C(=O)N2CCc3ccccc32)cc1S(=O)(=O)C(C)C`, the inhibition came to 3.8%.

In the case of `Fc1ccc(/C=N/n2c(C3CCCCC3)n[nH]c2=S)cc1`, the inhibition was 2.51%.

In the case of `Cn1nc(C(C)(C)C)cc1C(=O)NN1CCOCC1`, the inhibition is -9.9%.

Consider `COc1cc(F)ccc1CN1CCC(n2nccc2NC(=O)C2CCOC2)CC1` (stereo not drawn), for which the inhibition was -2.52%.

For the compound `Cc1cccc(Nc2nnc(SCC(=O)Nc3ncc(C(F)(F)F)cc3Cl)s2)c1C`, the inhibition was found to be 40.7%.

Regarding `COc1ccc(NS(=O)(=O)c2cccc(C(=O)NC3CCC(O)CC3)c2)cc1` (stereo not drawn), the inhibition was 3.25%.

With `COc1cc(C(=S)N2CCOCC2)ccc1OC(=O)c1ccc([N+](=O)[O-])cc1[N+](=O)[O-]`, the inhibition is 5.71%.

On to `O=C(O)c1cc2c(o1)CCC/C2=N\O`, for which the inhibition was -1.04%.

Consider `CCOC(=O)c1c(NC(=O)CCS(=O)(=O)c2ccccc2)sc2c1CC(C)(C)NC2(C)C`, for which the inhibition was -5.97%.

As to `COC(=O)C1CCN(C(=O)COC(=O)CC(NC(C)=O)c2ccccc2)CC1` (stereo not drawn), the inhibition is -9.05%.

In the case of `CCCCc1nc(C(N)=O)c2[nH]c(=O)n(-c3ccc(OCC)cc3)c2n1`, the inhibition worked out at 8.14%.

Take `O=C(Cn1cc2c(n1)CCCC2)NCCc1ccccc1`: the inhibition was -11.9%.

As for `Cc1ccc(/C=C/C(=O)OCC(=O)NC(C)c2ccccc2)o1` (stereo not drawn), the inhibition came to 36.4%.

In the case of `CCC(C)(c1ccc(C(=O)OC)s1)c1ccc(C(=O)OC)s1`, the inhibition worked out at 16.6%.

Regarding `COc1c2occc2c(OC(C)=O)c2c(=O)cc(C)oc12`, the inhibition was -6.22%.

As to `CCOC(=O)N1CCN(c2cc(=O)n(-c3ccc(OCC)cc3)c(=O)[nH]2)CC1`, the inhibition turned out to be 23.7%.

For the compound `Nc1cc(=O)nc(SCc2ccccc2)n1Cc1ccco1`, the inhibition was -5.58%.

Turning to `COc1ccccc1-c1cc(C(=O)Nc2cc(C)nn2-c2ccccc2)no1`, the inhibition was -6.43%.

On to `CCOC(=O)c1ccccc1NC(=O)C1CSC2(C)CCC(=O)N12` (stereo not drawn), for which the inhibition was -4.16%.

Take `CC(=O)N1CCOc2cc(S(=O)(=O)NCc3ccc(F)cc3)c(C)cc21`: the inhibition is -11.8%.

As to `Oc1ccc(Cl)cc1/C=N/c1nc2ccccc2[nH]1`, the inhibition stood at 3.77%.

For `COc1ccccc1OCC(=O)Nc1c2c(nn1-c1ccc(F)cc1)CS(=O)(=O)C2`, the inhibition was 15.7%.

For the compound `Cc1ccc(F)cc1NC(=O)c1cccc2nccnc12`, the inhibition amounted to 4.78%.

With `CCc1ccc(-c2cc(C)no2)cc1S(=O)(=O)N1CCOc2ccc(C)cc21`, the inhibition stood at 1.47%.

As for `Cc1noc(NS(=O)(=O)c2ccc(N/C=C/C(=O)c3ccc4c(c3)OCO4)cc2)c1C`, the inhibition worked out at 16.6%.

On to `Cc1ccc2c(c1)N(C(=O)CCC(=O)NCc1ccccc1)CC(C)O2` (stereo not drawn), for which the inhibition was -8.08%.

As for `O=c1oc(-c2ccco2)nc2sc3c(c12)CCCCC3`, the inhibition was determined as 3.71%.

`Cn1c(=O)c2c(SCC(=O)N3CCOCC3)nc(-c3ccccc3F)nc2n(C)c1=O`: the inhibition is 1.44%.

With `COc1ccc2cc(C(=O)C3CCCN(C(=O)c4cncs4)C3)ccc2c1` (stereo not drawn), the inhibition was found to be 0.43%.

As for `CCCn1c(=O)c2c(nc3n2CCCN3CCc2ccccc2)n(C)c1=O`, the inhibition turned out to be 4.63%.

As to `COC(=O)Cc1c(C)nc2nc(-c3ccc(OC)cc3)[nH]n2c1=O`, the inhibition is -1.33%.

For `O=S(=O)(Cc1ccccc1)NCc1ccccn1`, the inhibition is -8.93%.

With `COc1cc2cnc(-c3ccsc3)c(-c3ccc(F)cc3)c2cc1OC`, the inhibition was found to be 94.9%.

In the case of `CCOC(=O)c1c(NC(=O)COC(=O)c2ncc(Cl)c(Cl)c2Cl)sc(C(=O)N(C)C)c1C`, the inhibition turned out to be 23.3%.

Regarding `CCn1c(=O)cc(SCC(=O)NCc2ccco2)c2ccccc21`, the inhibition is -0.14%.

`O=C(Cn1c(=O)n2ncnc2c2c3c(sc21)CCCC3)c1ccccc1`: the inhibition stood at 1.16%.

In the case of `CCN(CC)S(=O)(=O)c1ccc(NC(=O)c2ccc(OCC3CCCO3)cc2)cc1` (stereo not drawn), the inhibition was 88.7%.

Regarding `Cc1ccc(C(=O)N2CCC3(CC2)Oc2ccc(F)cc2C(=O)C32CC(c3cccnc3)=NO2)s1` (stereo not drawn), the inhibition is 12.5%.

For the compound `O=C(/C=C/c1ccc2c(c1)OCO2)Nc1c(C(=O)O)[nH]c2ccccc12`, the inhibition is -3.9%.

Take `CSCCC(NC(N)=O)C(=O)NCc1ccc(Cl)cc1` (stereo not drawn): the inhibition is -10.6%.

As for `O=C(COc1ccccc1)Nc1ccncc1Cl`, the inhibition was determined as 35.5%.

Regarding `CN(CC1CCCO1)S(=O)(=O)c1ccc(C(=O)Nc2ccc(S(N)(=O)=O)cc2)cc1` (stereo not drawn), the inhibition is 1.66%.

Regarding `O=C(Nc1ccccc1)c1nc[nH]c1C(=O)N1CCc2ccccc2C1`, the inhibition was 81.9%.

With `Cc1ccccc1NC(=O)CN1C(=O)c2cccnc2Oc2ccc(Cl)cc21`, the inhibition is 0.44%.

With `CC1CCC(NC(=O)CN2C(=O)c3cccnc3Oc3ccc(Cl)cc32)CC1` (stereo not drawn), the inhibition stood at 6.22%.

As to `Cn1c(/N=C/c2c(O)ccc3ccccc23)nc2ccccc21`, the inhibition is 1.52%.

As to `Cc1ccccc1N1CCN(C2CCCN(C(=O)c3ccccn3)C2)CC1` (stereo not drawn), the inhibition worked out at 4.83%.

With `Cc1cc(NC(=O)C23CCC(C)(C(=O)O2)C3(C)C)no1` (stereo not drawn), the inhibition stood at 5.45%.

For the compound `Cc1ccc(NS(=O)(=O)c2c(C(=O)N3CCOCC3)c(C)n(C)c2C)cc1`, the inhibition turned out to be 1.2%.

With `Cc1ccc(-c2ccc(=O)n(Cc3ccc(F)cc3)n2)cc1`, the inhibition was 4.02%.

Turning to `COc1cc(CCC(=O)Nc2ccncc2Cl)cc(OC)c1OC`, the inhibition is -5.29%.

Take `O=C(COc1ccccc1)Nc1nc2cc3c(cc2s1)OCCO3`: the inhibition was -0.56%.

Consider `COc1ccc(C(=O)Nc2ccccc2C(=O)NC(C(=O)NCc2ccco2)C(C)C)cc1` (stereo not drawn), for which the inhibition worked out at 14%.

Regarding `Cc1ccc(C(=O)OCC(=O)c2c(N)n(C)c(=O)n(C)c2=O)cc1S(=O)(=O)N1CCCCC1`, the inhibition is -2.8%.

In the case of `CCCCOc1ccc(/C=C/C(=O)NCCc2nc3ccccc3[nH]2)cc1`, the inhibition was 8.88%.

On to `CCCC(=O)Nc1nn(C)c2nc3ccc(C)cc3cc12`, for which the inhibition was -4.73%.

For the compound `Cc1cc(C)[n+](C2C3CC4CC(C3)CC2C4)o1` (stereo not drawn), the inhibition was -2%.

Regarding `O=C(NC(=S)N1CCOCC1)c1ccc([N+](=O)[O-])cc1`, the inhibition was determined as 7.49%.

As for `COc1cc(Cl)ccc1OCc1cc(C(=O)N(C)Cc2nnc(C)o2)no1`, the inhibition came out at 9.23%.

For `COc1ccc(CN2CCC(C(=O)Nc3ccc(Oc4ccccc4)nc3)CC2)cc1F`, the inhibition was -4.32%.

In the case of `COc1ccc(NC(=O)c2sc3nc(N4CCCC4)c4c(c3c2N)CC(C)(C)OC4)cc1`, the inhibition amounted to 22.1%.

Turning to `CNC(=S)N/N=C1\C(=O)c2cccc3cccc1c23`, the inhibition amounted to 16.4%.

Consider `Cc1ccc(OCC(=O)N2CCC(N3CC(C)CC(C)C3)CC2)cc1` (stereo not drawn), for which the inhibition amounted to 1.97%.

As to `COc1ccc(C(=O)C[n+]2cccc3cc(OC)ccc32)cc1`, the inhibition is 10.7%.

For the compound `Cc1cc2oc(C(=O)N3CCN(CCc4ccccn4)CC3)c(C)c2cc1C`, the inhibition is -2.25%.

In the case of `Cc1nn(CC(=O)NNC(=O)c2cccc(Br)c2)c(C)c1[N+](=O)[O-]`, the inhibition stood at 3.27%.

With `COc1ccc2c(c1)C(=O)Cc1ccccc1O2`, the inhibition came to 12.7%.

Consider `C[N+]1(CC2COC3(CCCCC3)O2)CCCC1` (stereo not drawn), for which the inhibition is -2.84%.

For `Cc1nn(CC(=O)NCCCN2CCC(Cc3ccccc3)CC2)c(=O)c2cc(-c3ccccc3)nn12`, the inhibition came out at 98.1%.

In the case of `CCc1ccccc1NC(=S)N(CCCN1CCOCC1)Cc1ccccn1`, the inhibition is -0.63%.

For `COc1ccc(C(=O)CCC(=O)N2CCN(c3cccc(Cl)c3)CC2)cc1`, the inhibition is 35.3%.

On to `CC(C)c1ccc(C2NC(=S)NC3=C2C(=O)CCC3)cc1` (stereo not drawn), for which the inhibition was -2.31%.

Consider `Cc1ccc(Cn2c(NC(=O)c3ccco3)nc3ccccc32)cc1`, for which the inhibition came out at 39.9%.

Consider `O=C(O)CCCCCNC(=O)CCn1cnc2ccccc2c1=O`, for which the inhibition was -0.25%.

Turning to `CSc1ccccc1OCc1cc(C(=O)N2CCC(c3ccncc3)CC2)no1`, the inhibition stood at 87.7%.

For `COc1ccccc1CNC(=O)CN1C(=O)C(C)N(c2ccc(C)cc2)C1=O` (stereo not drawn), the inhibition is 5.24%.

As to `CCOc1ccccc1NC(=O)CCc1nnc2ccc(N3CCC4(CC3)OCCO4)nn12`, the inhibition was -11.1%.

On to `Cc1sc2c(c1C)c(=O)n(-c1cccc(C(F)(F)F)c1)c(=O)n2CC(=O)NCc1ccco1`, for which the inhibition was 6.78%.

`COC(=O)COc1cc(=O)oc2ccc(NS(=O)(=O)c3ccccc3)cc12`: the inhibition amounted to 11.6%.

With `Oc1ccc(C2C[C@H]3CC[C@@H]2C3)cc1O` (stereo partly drawn), the inhibition was -0.45%.

In the case of `CCSc1nnc(NC(=O)C2Cc3ccccc3CN2C(=O)c2ccco2)s1` (stereo not drawn), the inhibition amounted to 29.6%.

As for `COc1cc(C(=O)N/N=C/c2ccc(OC(=O)c3cccc(C)c3)cc2)ccc1O`, the inhibition stood at 33.3%.

`COc1cccc(C2CC(c3ccc(C)cc3)Nc3nc(N)nn32)c1` (stereo not drawn): the inhibition was -6.59%.

Turning to `O=C(NN1C(=O)C2C(C1=O)C1C=CC2C12CC2)c1ccncc1` (stereo not drawn), the inhibition turned out to be 37.1%.

Consider `O=C(CCCn1c(SCC(=O)c2ccccc2)nc2ccccc2c1=O)NCC1CCCO1` (stereo not drawn), for which the inhibition is -6.62%.

Take `CCOC(=O)N1CCN(C(=O)CNC(=O)c2nn(-c3ccc(OC)cc3)c(=O)c3ccccc23)CC1`: the inhibition worked out at 4.49%.

As for `CC1(C)Cc2c(cnn2-c2ccc(F)cc2)C(NC(=O)Cn2cncn2)C1` (stereo not drawn), the inhibition was -12%.

In the case of `Cn1nc(C(=O)N2CCOCC2)c2ccccc2c1=O`, the inhibition came out at 4.19%.

As for `COC(=O)C1=C(C)Nc2ncnn2C1c1ccc(C)o1` (stereo not drawn), the inhibition is -6.76%.

In the case of `Nc1n[nH]c(N)c1N=Nc1cccc(F)c1`, the inhibition is -6.18%.

Consider `COc1cc(NC(=S)NC(=O)c2ccco2)ccc1NC(=O)C(C)C`, for which the inhibition was -13.6%.

Consider `O=[N+]([O-])c1cc(C(F)(F)F)ccc1NCCc1c[nH]c2ccc(O)cc12`, for which the inhibition is -1.15%.

As for `CC(C)(C)c1ccc(C(=O)N/C(=C\c2cccs2)C(=O)NCc2ccco2)cc1`, the inhibition came out at 14.7%.
